{
  "source": "PubChem BioAssay AID602404",
  "about": "(Sanford-Burnham Center for Chemical Genomics, 2012)",
  "target": "Ubiquitin-conjugating enzyme E2 N (Homo sapiens) (UniProt P61088)",
  "sequence (P61088 whole entry, looked up)": "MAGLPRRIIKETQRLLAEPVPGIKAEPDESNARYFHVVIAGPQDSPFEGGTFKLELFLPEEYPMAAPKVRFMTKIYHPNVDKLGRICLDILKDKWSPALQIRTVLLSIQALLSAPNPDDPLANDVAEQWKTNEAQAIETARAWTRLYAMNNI",
  "test": "inhibition of UBC13-driven polyubiquitin chain formation – biochemical, TR-FRET, set 4, SAR follow-up (AID 602404)",
  "conditions": "UBC13 polyubiquitination",
  "note": "The source holds more than one record for some entries. They are shown here; other results are not. How the calls were made is not given here. There may be further records. The records of an entry are repeats across runs, samples, wells, individuals or studies. A tag in brackets gives the origin of a value. Letters count within one entry.",
  "data": [
    {"smiles": "Cc1ccc(NC(=O)C2CCN(c3ncnc4c3nc3n4CCCCC3)CC2)cc1C", "values": [
      {"measurement": "IC50", "result": "7.58 µM [sample A] and inactive [sample B]"}
    ]}
  ]
}
